Results published in patent US12338279B2, “Selective and potent inhibitory antibodies of myostatin activation” (SCHOLAR ROCK, INC., priority 2022, dated 2025).

Legend:
[1] = AC-SINS self-interaction (aggregation behavior); type: physicochemical; conditions: cutoff shift >5 nm in plasmon wavelength
Protocol: The antibodies were tested for aggregation behavior by affinity capture self-interaction nanoparticle spectroscopy (AC-SINS). Gold nanoparticles were coated with polyclonal antibodies that are specific for human monoclonal antibodies and the monoclonal antibodies are captured by the conjugates. The polyvalency of the monoclonal antibody conjugates amplifies the attractive self-interactions, i.e., aggregation between the adsorbed antibodies. This leads to reduced inter-particle separation distances and is detected by a change in color of the gold colloid solution, which was quantified by a change in the wavelength of maximum absorbance (plasmon wavelength). Plasmon wavelength of 530 nm was used as the reported value for unaggregated gold nanoparticles. Antibodies with a tendency to self-aggregate shift the plasmon wavelength toward the red end of the spectrum. A shift of greater than 5 nm (i.e., >5 nm) in plasmon wavelength was used as the cutoff indicative of self-interacting antibodies.

[2] = tested on: biotinylated human pro-myostatin; test: Biacore 8k SPR binding affinity, human pro-myostatin
Description: (§1) The Biacore™ 8 k SPR system was utilized to evaluate the binding affinity of myostatin antibodies to biotinylated human, murine, and cyno pro-myostatin. Biotin CAPture kit and sensor chips (Cytiva) were utilized in these experiments to immobilize the various antigens, followed by flowing a range of concentrations of each of the test antibodies.

[3] = tested on: dexamethasone-induced muscle atrophy in C57BL6 male mice; test: Dexamethasone-induced muscle atrophy mouse model; type: in vivo; conditions: 3 mg/kg/day
Description: To evaluate in vivo efficacy of the novel myostatin-selective inhibitors disclosed herein, the ability of the antibodies to preserve lean muscle mass was examined in a dexamethasone-induced atrophy mouse model. An excess of glucocorticoids directly stimulates myostatin production via interactions with a glucocorticoid response element in the myostatin promoter, thus inducing loss of muscle mass. As shown herein, antibodies of the disclosure prevented glucocorticoid-induced muscle atrophy.
C57BL6 male mice (n=8) at 13-14 weeks of age were given normal drinking water or water containing dexamethasone at a concentration of 2.5 mg/kg (17.5 grams dexamethasone per liter of drinking water) to induce atrophy. […] Body weight was measured daily. Body composition was measured by qNMR to determine lean mass pre-dosing, at day 7, and at day 14. After 14 days of dexamethasone exposure, the animals were terminated, and body weight and gastrocnemius weight were measured. Terminal blood for each animal was also collected.
C57BL6 male mice (n=8) at 13-14 weeks of age were given normal drinking water or water containing dexamethasone at a concentration of 2.5 mg/kg to induce atrophy. Mice were dosed at day 1 and day 7 with vehicle (PBS), IgG control (“hIgG”) or different doses of the test antibodies, as shown in Table 13. Muscle mass at days −1, 6 and 13 was measured using qNMR. At the end of the study (day 14), serum from each animal was collected and changes in body weight, body composition (qNMR), left and right gastrocnemius weight, and left and right quadriceps weight were measured. Statistical analysis was performed by ANOVA (Dunnett's multiple comparison test).
In a third experiment, antibody doses ranging from 0.3 mg/kg to 10 mg/kg were compared for their effectiveness in attenuating dexamethasone-induced atrophy. C57BL6 male mice (n=8) at 13-14 weeks of age were given normal drinking water or water containing dexamethasone at a concentration of 2.5 mg/kg to induce atrophy. Mice were dosed at day 1 and day 7 with vehicle (PBS), human IgG control (“hIgG”) or different doses of the test antibodies, as shown in Table 14 below. qNMR was used to measure muscle mass at days-1, 6 and 13. At day 14 the study ended, serum was collected and changes in body composition (qNMR), left and right gastrocnemius weight, and left and right quadriceps weight were determined. Circulating myostatin was measured in the serum of a terminal bleed taken at day 14. Statistical analysis was performed by ANOVA (Dunnett's multiple comparison test).
In a fourth experiment, antibodies Ab109 and Ab133 were compared to control human IgG and Ab2 in the same protocol as described above.

[4] = tested on: biotinylated murine pro-myostatin; test: Biacore 8k SPR binding affinity, murine pro-myostatin; design: species or system mouse
Description: as §1

total myostatin in serum = test: Circulating total myostatin in serum (acidification ELISA), dexamethasone model; type: in vivo, mouse; conditions: as compared to apitegromab
Description: Briefly, serum samples were acidified at low pH (e.g., pH ˜2.5) to dissociate the bound antibody from the immune complex and to convert all myostatin in the sample to the active form of growth factor (i.e., mature myostatin). Samples were then neutralized and assayed for the presence of mature myostatin on ELISA plates coated with anti-mature myostatin antibodies as capture reagents.

Molecule | Ka [2] | Kd (1/s) [2] | Ka [4] | Kd (1/s) [4] | aggregation behavior by AC-SINS [1] | body weight of dexamethasone treated mice ([3]; FIG. 6A, FIG. 9A) | lean mass by qNMR in dexamethasone treated mice ([3]; FIG. 6B, FIG. 9B) | gastrocnemius weight in dexamethasone treated mice ([3]; FIG. 6C, FIG. 9C) | accumulation of total or latent myostatin in serum samples from dosed subjects (total myostatin in serum)
Ab113: anti-pro/latent myostatin antibody; CDRs in Tables 2d-f, variable domains Table 3, chains Table 4 (protein) heavy chain: QVQLVQSGAEVKKPGASVKVSCKVSGYLLTELSIHWVRQAPGKGLEWMGGIIPSFGTAIYAQKFQGRVTMTEDTSTDTAYMELSSLKSEDTAVYYCAISYSGFDLLPLDKWGQGTLVTVSSASTKGPSVFPLAPCSRSTSESTAALGCLVKDYFPEPVTVSWNSGALTSGVHTFPAVLQSSGLYSLSSVVTVPSSSLGTKTYTCNVDHKPSNTKVDKRV[human IgG4 Fc with S228P (EU numbers) left out] light chain: DIQMTQSPSSVSASVGDRVTITCRASQHISTWLAWYQQKPGKAPKLLIYYASSLQGGVPSRFSGSGSGTDFTLTISSLQPEDFANYYCLQTYTYPRTFGGGTKVEIKRTVAAPSVFIFPPSDEQLKSGTASVVCLLNNFYPREAKVQWKVDNALQSGNSQESVTEQDSKDSTYSLSSTLTLSKADYEKHKVYACEVTHQGLSSPVTKSFNRGEC |  |  |  |  | displayed aggregation behavior |  |  |  | 
Ab101: anti-pro/latent myostatin antibody; CDRs in Tables 2d-f, variable domains Table 3, chains Table 4 (antibody) heavy: EVQLVESGGGLVQPGGSLRLSCAASGSAFSSYGMSWVRQAPGKGLELVASINSNGGSTYYPDSVKGRFTISRDNAKNSLYLQMNSLRAEDTAVYYCARDLLVRFLEWSHYYGMDVWGQGTTVTVSSASTKGPSVFPLAPCSRSTSESTAALGCLVKDYFPEPVTVSWNSGALTSGVHTFPAVLQSSGLYSLSSVVTVPSSSLGTKTYTCNVDHKPSNTKVDKRV[human IgG4 Fc with S228P (EU numbers) left out] light: DIVMTQSPLSLPVTPGEPASISCRSSQSLLHSSGHNFLHWYLQKPGQSPQLLIYEVSNRVSGVPDRFSGSGSGTDFTLKISRVEAEDVGVYYCMQQTQYPPTFGGGTKVEIKRTVAAPSVFIFPPSDEQLKSGTASVVCLLNNFYPREAKVQWKVDNALQSGNSQESVTEQDSKDSTYSLSSTLTLSKADYEKHKVYACEVTHQGLSSPVTKSFNRGEC | 4.37e+06 M⁻¹ s⁻¹ | 0.000339 s⁻¹ | 4.34e+06 M⁻¹ s⁻¹ | 0.00036 s⁻¹ | did not display aggregation behavior |  |  |  | 

Second part, led by results:

Ka [2] | Kd (1/s) [2] | Ka [4] | Kd (1/s) [4] | Molecule | aggregation behavior by AC-SINS [1] | body weight of dexamethasone treated mice ([3]; FIG. 6A, FIG. 9A) | lean mass by qNMR in dexamethasone treated mice ([3]; FIG. 6B, FIG. 9B) | gastrocnemius weight in dexamethasone treated mice ([3]; FIG. 6C, FIG. 9C) | accumulation of total or latent myostatin in serum samples from dosed subjects (total myostatin in serum)
6.49e+06 M⁻¹ s⁻¹ | 0.000376 s⁻¹ | 6.11e+06 M⁻¹ s⁻¹ | 0.0005 s⁻¹ | Ab102: anti-pro/latent myostatin antibody; CDRs in Tables 2d-f, variable domains Table 3, chains Table 4 (antibody) heavy: EVQLVESGGGLVQPGGSLRLSCAASGFTFTSYGMSWVRQAPGKGLELVASITGSGGETYYPDSVKGRFTISRDNAKNSLYLQMNSLRAEDTAVYYCARDLLVRFLEWSHYYGMDVWGQGTTVTVSSASTKGPSVFPLAPCSRSTSESTAALGCLVKDYFPEPVTVSWNSGALTSGVHTFPAVLQSSGLYSLSSVVTVPSSSLGTKTYTCNVDHKPSNTKVDKRV[human IgG4 Fc with S228P (EU numbers) left out] light: DIVMTQSPLSLPVTPGEPASISCRSSQSLLHSSGHNFLHWYLQKPGQSPQLLIYETSNRAPGIPDRFSGSGSGTDFTLKISRVEAEDVGVYYCMQATQFPRPFGGGTKVEIKRTVAAPSVFIFPPSDEQLKSGTASVVCLLNNFYPREAKVQWKVDNALQSGNSQESVTEQDSKDSTYSLSSTLTLSKADYEKHKVYACEVTHQGLSSPVTKSFNRGEC | did not display aggregation behavior | maintained the body weight of the dexamethasone treated mice to a greater extent than Ab2 | preserved the lean mass of the mice to a greater degree than the 10 mg/kg/day dose of Ab2 | highly effective in preserving gastrocnemius weight | reduced accumulation of circulating latent myostatin
5.78e+06 M⁻¹ s⁻¹ | 1.51 E−03 1/s | 5.83e+06 M⁻¹ s⁻¹ | 0.00221 s⁻¹ | Ab103: anti-pro/latent myostatin antibody; CDRs in Tables 2d-f, variable domains Table 3, chains Table 4 (antibody) heavy: EVQLVESGGGLVQPGGSLRLSCAASGYTFSSYGMSWVRQAPGKGLELVASITGDAGRTYYPDSVKGRFTISRDNAKNSLYLQMNSLRAEDTAVYYCARDTLVRFLEWSHYYGMDVWGQGTTVTVSSASTKGPSVFPLAPCSRSTSESTAALGCLVKDYFPEPVTVSWNSGALTSGVHTFPAVLQSSGLYSLSSVVTVPSSSLGTKTYTCNVDHKPSNTKVDKRV[human IgG4 Fc with S228P (EU numbers) left out] light: DIVMTQSPLSLPVTPGEPASISCRSSQSLLHSSGHNFLHWYLQKPGQSPQLLIYEVSNRVSGVPDRFSGSGSGTDFTLKISRVEAEDVGVYYCMQQTQYPPTFGGGTKVEIKRTVAAPSVFIFPPSDEQLKSGTASVVCLLNNFYPREAKVQWKVDNALQSGNSQESVTEQDSKDSTYSLSSTLTLSKADYEKHKVYACEVTHQGLSSPVTKSFNRGEC | did not display aggregation behavior |  |  |  | 
5.34e+06 M⁻¹ s⁻¹ | 0.000319 s⁻¹ | 8.04e+06 M⁻¹ s⁻¹ | 0.000455 s⁻¹ | Ab107: anti-pro/latent myostatin antibody; CDRs in Tables 2d-f, variable domains Table 3, chains Table 4 (antibody) heavy: EVQLVESGGGLVQPGGSLRLSCAASGSAFSSYGMSWVRQAPGKGLELVASINSNGGSTYYPDSVKGRFTISRDNAKNSLYLQMNSLRAEDTAVYYCARDQLVRFLEWSHYYGMDVWGQGTTVTVSSASTKGPSVFPLAPCSRSTSESTAALGCLVKDYFPEPVTVSWNSGALTSGVHTFPAVLQSSGLYSLSSVVTVPSSSLGTKTYTCNVDHKPSNTKVDKRV[human IgG4 Fc with S228P (EU numbers) left out] light: DIVMTQSPLSLPVTPGEPASISCRSSQSLLHSSGHNFLHWYLQKPGQSPQLLIYAGSNRPSGVPDRFSGSGSGTDFTLKISRVEAEDVGVYYCAHATQLPHTFGGGTKVEIKRTVAAPSVFIFPPSDEQLKSGTASVVCLLNNFYPREAKVQWKVDNALQSGNSQESVTEQDSKDSTYSLSSTLTLSKADYEKHKVYACEVTHQGLSSPVTKSFNRGEC | did not display aggregation behavior |  |  |  | 
